# Reference: paper PMC12713088
# No constants are given. Whether binding was seen depends on the method and setting. Some binding calls cover weakened binding; strength is not graded here. Sequences can lack the tags named with a protein.
# T1: NAC050-MBP, recombinant (Arabidopsis thaliana) (UniProt Q9SQX9)
# T1 sequence: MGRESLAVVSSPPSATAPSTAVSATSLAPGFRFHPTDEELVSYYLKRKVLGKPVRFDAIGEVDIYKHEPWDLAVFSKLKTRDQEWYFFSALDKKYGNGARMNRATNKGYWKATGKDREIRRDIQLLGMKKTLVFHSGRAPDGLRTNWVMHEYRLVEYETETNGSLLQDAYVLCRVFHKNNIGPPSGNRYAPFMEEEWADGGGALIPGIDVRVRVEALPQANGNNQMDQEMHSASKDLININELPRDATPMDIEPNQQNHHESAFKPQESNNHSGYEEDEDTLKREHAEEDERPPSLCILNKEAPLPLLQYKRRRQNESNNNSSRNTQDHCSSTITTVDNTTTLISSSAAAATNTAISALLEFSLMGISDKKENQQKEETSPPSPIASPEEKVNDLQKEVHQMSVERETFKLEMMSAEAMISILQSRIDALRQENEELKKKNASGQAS
# T2: INCURVATA 11 (ICU11), yeast two-hybrid fusion (Arabidopsis thaliana), Q3ED68
# T2 chain: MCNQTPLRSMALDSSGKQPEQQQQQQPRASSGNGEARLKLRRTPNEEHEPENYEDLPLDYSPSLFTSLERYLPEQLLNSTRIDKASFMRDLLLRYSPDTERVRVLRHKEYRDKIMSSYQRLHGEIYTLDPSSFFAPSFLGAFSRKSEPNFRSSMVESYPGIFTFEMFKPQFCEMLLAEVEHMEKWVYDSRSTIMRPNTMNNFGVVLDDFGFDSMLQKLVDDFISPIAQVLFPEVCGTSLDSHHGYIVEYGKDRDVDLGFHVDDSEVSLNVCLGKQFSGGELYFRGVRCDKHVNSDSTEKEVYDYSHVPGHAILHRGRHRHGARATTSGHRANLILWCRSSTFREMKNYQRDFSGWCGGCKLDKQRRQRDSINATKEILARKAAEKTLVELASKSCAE
# T3: TRB1, yeast two-hybrid fusion (Arabidopsis thaliana), Q8VWK4
# T3 chain: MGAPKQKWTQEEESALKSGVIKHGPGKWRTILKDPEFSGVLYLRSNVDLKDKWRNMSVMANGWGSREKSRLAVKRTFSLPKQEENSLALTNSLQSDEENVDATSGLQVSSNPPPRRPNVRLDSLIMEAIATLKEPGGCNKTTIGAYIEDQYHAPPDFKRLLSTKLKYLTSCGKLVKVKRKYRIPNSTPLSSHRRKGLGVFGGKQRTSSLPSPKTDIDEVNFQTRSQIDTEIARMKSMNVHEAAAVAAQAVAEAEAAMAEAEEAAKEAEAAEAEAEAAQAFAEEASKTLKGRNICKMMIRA
# T4: TRB2, yeast two-hybrid fusion (Arabidopsis thaliana), Q9FJW5
# T4 chain: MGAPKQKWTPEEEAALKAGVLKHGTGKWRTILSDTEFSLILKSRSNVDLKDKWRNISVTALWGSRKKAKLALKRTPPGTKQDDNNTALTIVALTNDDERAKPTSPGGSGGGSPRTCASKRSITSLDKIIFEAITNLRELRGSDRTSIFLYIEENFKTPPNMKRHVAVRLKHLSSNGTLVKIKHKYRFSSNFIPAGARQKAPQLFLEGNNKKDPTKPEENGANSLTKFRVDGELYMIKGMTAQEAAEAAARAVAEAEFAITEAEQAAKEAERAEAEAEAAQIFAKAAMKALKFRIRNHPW
# T5: TRB3, yeast two-hybrid fusion (Arabidopsis thaliana), Q9M2X3
# T5 chain: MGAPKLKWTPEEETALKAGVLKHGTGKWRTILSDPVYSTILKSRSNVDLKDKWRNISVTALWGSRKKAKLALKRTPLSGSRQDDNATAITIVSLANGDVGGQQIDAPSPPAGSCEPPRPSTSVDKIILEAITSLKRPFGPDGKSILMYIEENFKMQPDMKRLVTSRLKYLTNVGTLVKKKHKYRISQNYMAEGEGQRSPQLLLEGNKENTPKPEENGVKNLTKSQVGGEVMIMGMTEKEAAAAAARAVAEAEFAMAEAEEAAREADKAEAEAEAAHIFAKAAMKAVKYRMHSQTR
# B1: ICU11, recombinant, GST- or MBP-tagged (pull-down) (protein, UniProt Q3ED68 1-397)
# chain: T2 chain
# B2: ICU11-GST, recombinant (gel filtration) (protein, UniProt Q3ED68 1-397)
# chain: T2 chain
# B3: JUMONJI14 (JMJ14), yeast two-hybrid fusion, Q8GUI6 1-954 (enzyme)
# chain: MDQLASLAESVAMEEDSEKQSIKGESSLEPDSTPSSPKITARWNPSEACRPLVDDAPIFYPTNEDFDDPLGYIEKLRSKAESYGICRIVPPVAWRPPCPLKEKKIWENSKFPTRIQFIDLLQNREPIKKSTKTKKRKRRRISKIGYTRRKRDSGCDTASSGSSDSEGKFGFQTGPDFTLEEFQKYDEYFKECYFQSEDHPGSKASENKKFKPKVKDLEGEYWRIVEQATDEVEVYYGADLETKKFGSGFPKYKPGYPISEADQYSQCGWNLNNLSRLPGSVLAFESCDISGVIVPWLYVGMCFSTFCWHVEDHHLYSMNYLHTGDPKVWYGIPGNHAESFENVMKKRLPDLFEEQPDLLHQLVTQLSPRILKEEGVPVYRAVQRSGEFILTFPKAYHSGFNCGFNCAEAVNVAPVDWLVHGQNAVEGYSKQRRKSSLSHDKLLLGAAMEATYCLWELSLSKKKTPVIARWKRVCSEDGLLTKAVKKRVQMEEERLNHLQDGFSLRKMEGDFDNKRERECFLCFYDLHMSASSCKCSPNRFACLIHAKDLCSCESKDRYILIRHTLDELWALVRALEGDLDAIDLWASKCRDQYPSQHPRAREYAYLKSAPCIKSRGSSKVQQREQNNLQLVSERLQSDLTSNKEVQLKQDGDSDVNRHGHESERNHVHGITDKSAVTDVKLGVGGKFDEKKISVESQNPHSVSDVGCSELAKKVDGCLGGKDQNAATNRLSLSVELLSSGSLVVKKLWCSKQAIYPKGFKSRVKFLSVLDPTNLTNYISEVLDAGLLGPLFRVSVEDYPTENFSNVSAEKCWQMVTQRLKLEIIKKCDQPVSSLTSLQPLESINGLEMFGFLSPHVIKVVEALDPKHQLEEYWNQKAVKLFGAEPIKEGEKDDTEKGGASDPSLDRDTRLLRGLLKKATPEELVMMHGLLCGETRNTELKEELSTLVDKMEISP
# B4: TRB1-His, recombinant, Q8VWK4 1-300 (protein)
# chain: T3 chain
# B5: ICU11, recombinant, GST- or MBP-tagged (pull-down), Q3ED68 1-397 (protein)
# chain: T2 chain
# How the values were obtained:
# [1] = target: T1, NAC050-MBP, recombinant (Arabidopsis thaliana); test: pull-down; purified proteins mixed in GST-tag lysis buffer (20 mM Tris-HCl pH 7.5, 150 mM NaCl, 1 mM DTT) at 4 °C for 1 h, then GST or MBP beads; immunoblot with GST, MBP or His antibody; both purified
# [2] = target: T1, NAC050-MBP, recombinant (Arabidopsis thaliana); test: SEC; purified proteins mixed in equivalent molar amounts, 4 °C overnight, Superose 6 10/300GL; fractions detected by immunoblotting (GST, FLAG, MBP, HIS); both purified
# [3] = target: T2, INCURVATA 11 (ICU11), yeast two-hybrid …; test: two-hybrid; pGADT7 and pGBKT7 fusions, strains AH109 and Y187 mated; growth on SD-LWH with 0 or 3 mM 3-AT; conditions: remark: other sources report otherwise
# [4] = target: T3, TRB1, yeast two-hybrid fusion …; test: as above; conditions: remark: other sources report otherwise
# [5] = target: T4, TRB2, yeast two-hybrid fusion …; test: as above; conditions: remark: other sources report otherwise
# [6] = target: T5, TRB3, yeast two-hybrid fusion …; test: as above; conditions: remark: other sources report otherwise
# [7] = target: JMJ14-Flag, recombinant (Arabidopsis thaliana), Q8GUI6; test: pull-down; purified proteins mixed in GST-tag lysis buffer (20 mM Tris-HCl pH 7.5, 150 mM NaCl, 1 mM DTT) at 4 °C for 1 h, then GST or MBP beads; immunoblot with GST, MBP or His antibody; both purified; conditions: remark: other sources report otherwise
binder,measurement,setting,value
B1,binding,[1],binds
B2,binding,[2],binds
B3,binding,[3],no binding
same,binding,[4],no binding
same,binding,[5],no binding
same,binding,[6],no binding
B4,binding,[7],no binding
B5,binding,[7],no binding
